# From publication PMC13541613
# Only a part is listed here, and it is no random draw. At the low end of the ranking the order means little.
# Target: ZNF721 DBD1 (UniProt Q8TF20-2)
# Assay: HT-SELEX
# Conditions: 20 mM HEPES pH 7, 140 mM KCl, 5 mM NaCl, 1 mM K2HPO4, 2 mM MgSO4, 100 uM EGTA, ZnSO4, 0.1% Tween20; room temperature, 1 h; high values mean tight binding; double strand, one strand shown
row,Sequence,binding signal (relative 10-mer count)
1,CACAAAACAG,0.000917
2,CAGTGTTTCC,0.000229
3,AAAAAAACAG,0.00078
4,CCTCCACCCA,0.00505
5,GCCCCCGCCC,0.00527
6,CAGTGTCTCC,0.000642
7,AAAAACTAGC,0.000367
8,CTGTTTTTTA,0.000596
9,AAAGAAACAG,0.000138
10,AAAGCTATCC,0.0786
11,ACAGCATCCC,0.000688
12,AAACAGGGTA,0.000826
13,AAGCAGTGTA,0.000688
14,TAAAACAGCA,0.000367
15,CCTCGCCCCC,0.00592
16,GGGTGGGTGA,0.00505
17,CCGAAAACAG,0.000596
18,CAGCATATCC,0.000459
19,AAAAACAGGA,0.000459

row,Sequence,binding signal (relative 10-mer count)
1,CCCTGTTTTC,0.000459
2,CAGTGTATCC,0.000459
3,AACAGCATAT,0.000183
4,AAAAAACAGT,0.000826
5,ACAGTGTTTC,0.000321
6,AAACAGCATA,0.000871
7,CAAAGCAGCA,0.000642
8,AAAACAGCGC,0.000459
9,CAGAGTACCC,0.000505
10,AAAAACAGAA,0.000275
11,AAAAGCTATC,0.129
12,AAAGCAGTGT,0.000505
13,AGAGTACCCA,0.000459
14,AAAAAACAGG,0.000642
15,CAAAAAACAG,0.000917
16,ATGCTGTTTC,0.000413
17,ACAGCGTCTC,0.000688
18,AGAAAAACAG,0.000321
19,CTCCACCCCC,0.00812
